Results from PubChem BioAssay AID686979 (National Center for Advancing Translational Sciences (NCATS), 2013).
Several values for one entry are separate records, joined by “and”; a condition that tells them apart may be missing. Equal values may be shown once. Screen size: about 420,000 compounds; about 50,000 (12%) were called active. Inconclusive means that the source gave no clear call. Such entries were picked first, then a sample of the others. The call rests on the fitted dose curve; in most records, active means well fitted inhibition curve with a large enough effect; inconclusive means small, poorly fitted or top-dose-only effect; inactive means flat fitted curve, though single readings scatter. Where the call is inconclusive, the potency comes from a doubtful curve fit.

Assay: qHTS for Inhibitors of human tyrosyl-DNA phosphodiesterase 1 (TDP1): qHTS in cells in presence of CPT; further: nearly all actives have a fitted effect of over 55% in size
Conditions: chicken DT40 Tdp1-/-;hTDP1 cells + 20 nM CPT, ATP luminescence, 48 h; activity change, negative = growth inhibition: at 46.2 µM (top of the series) unless noted
In short: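 Chicken DT40 Tdp1-/- cells stably complemented with human TDP1 were seeded at 400 cells/well in medium containing 20 nM camptothecin, exposed to pin-transferred compounds, and grown at 37 °C for at least 48 hr. Viability was read as ATP luminescence.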
On the % scale 0 is the no-effect control and ±100 the full control effect; potency means the concentration at half of the fitted maximal effect; tags describe the fitted curve by direction and shape.

Row | Structure (SMILES) | activity change, negative = growth inhibition | Potency
1 | C[C@H](CO)N1C[C@H](C)[C@@H](CN(C)S(=O)(=O)c2cccs2)Oc2ccc(NS(=O)(=O)c3cn(C)cn3)cc2C1=O | inactive: 7.32% | 
2 | CC(C)C(=O)N1CCN(c2ccc([N+](=O)[O-])c(NC(C)c3ccccc3)c2)CC1 (stereo unspecified) |  | inconclusive: 29.1 µM [inhibitor, single point]
3 | COC(=O)c1ccc(C23CC4(C2)[C@H](CN(CC2CCCCC2)[C@@H]4c2ccccc2)C3c2ccccc2)cc1 (stereo partly specified) |  | active: 25.9 µM
4 | CCOc1ccc(C(=O)Nc2ccccc2-c2ccccc2)cc1Cl | inactive: -23.2% | 
5 | CC1=Nc2ccc(C)cc2/C1=C/c1c(N)n2c(S(=O)(=O)C(C)C)nsc2nc1=O | inconclusive: -35.1% [inhibitor] | 
6 | O=Cc1ccc(B(O)O)cc1 |  | inconclusive: 22.4 µM [inhibitor, single point]
7 | CCOC(=O)c1c(NC(=O)CCc2ccc(CC)o2)sc(C)c1C |  | inconclusive: 25.9 µM [inhibitor, single point]
8 | COc1ccc(CNC(=O)C(=O)NCC2OCCN2S(=O)(=O)c2ccc(C)cc2)cc1 (stereo unspecified) |  | inconclusive: 25.9 µM [inhibitor, partial curve, poor fit]
9 | Cc1ccc(S(=O)(=O)c2c(C)nn(C(C)(C)C)c2OC(=O)c2ccc(Br)o2)cc1 |  | inconclusive: 20.6 µM [inhibitor, single point]
10 | O=C(Nc1ccc(N2CCCCC2)cc1)c1ccc2c(c1)OCCO2 |  | inconclusive: 10.3 µM [inhibitor, partial curve, poor fit]
11 | COC(=O)c1cc(C(=O)c2cc(Cl)ccc2O)coc1=N |  | inconclusive: 14.6 µM [inhibitor, partial curve]
12 | COc1ccc(C(=O)NN(c2ccccc2)c2ccccc2)cc1 | inconclusive: -32.8% [inhibitor] | 
13 | CCN(CC)c1ccc(/C=c2\sc3nnc(-c4ccccc4Cl)n3c2=O)cc1 |  | inconclusive: 23.1 µM [inhibitor, single point]
14 | CC(Cc1cccc(C(F)(F)F)c1)NCCOC(=O)c1ccccc1 (stereo unspecified) |  | inconclusive: 25.9 µM [inhibitor, single point] and inconclusive: 20.6 µM [inhibitor, single point]
15 | CN(C)CC1C2CCC(C2)C1O (stereo unspecified) | inactive: -3.31% | 
16 | CCOC1(c2ccccc2)CC1C(=O)N/N=C/c1cccc([N+](=O)[O-])c1 (stereo unspecified) |  | inconclusive: 29.1 µM [inhibitor, single point]
17 | CC(C)c1ccc(NC(=O)C2Cc3c(-c4ccc(Cl)cc4)ccnc3O2)cc1 (stereo unspecified) |  | active: 16.4 µM
18 | COc1cc(OC)cc(C(=O)NC(=S)NNC(=O)Cc2cccs2)c1 |  | inconclusive: 23.1 µM [inhibitor, single point]
19 | COCCNC(=S)NCc1cccs1 | inactive: -4.45% | 
20 | CC(C)C(C)NC(=O)COc1ccc(OCc2ccccc2)cc1 (stereo unspecified) |  | inconclusive: 20.6 µM [inhibitor, single point]
21 | COc1ccc(C(=O)NNC(=S)NC(=O)c2cccc([N+](=O)[O-])c2)cc1 |  | inconclusive: 18.4 µM [inhibitor, single point]
22 | CCN(C(=O)CSc1nnc(-c2ccncc2)o1)c1ccccc1 | inactive: -8.99% | 
23 | Cc1cc(C(=O)N2CCN(S(=O)(=O)c3ccccc3)CC2)c(C)o1 |  | active: 23.1 µM
24 | Cc1cnc(C(=O)N(c2ccccc2)C(c2ccccc2)c2nc3ccccc3[nH]2)cn1 (stereo unspecified) |  | inconclusive: 29.1 µM [inhibitor, single point]

Row | Structure (SMILES) | activity change, negative = growth inhibition | Potency
25 | CCCN(CCC)S(=O)(=O)c1ccc(C(=O)Nc2nnc(CSC)o2)cc1 |  | inconclusive: 29.1 µM [inhibitor, single point]
26 | C=CCSc1nc2[nH]ncc2c(=O)[nH]1 |  | inconclusive: 14.6 µM [inhibitor, single point]
27 | Cn1c(-c2ccc(F)cc2)cc2onc(-c3c(F)cccc3Cl)c2c1=O |  | active: 13 µM
28 | COc1cccc(/C=N/NC(=O)CN(C2=NS(=O)(=O)c3ccccc32)c2ccccc2)c1 | inactive: -25.4% | 
29 | Cc1ccc2cc(CCl)c(Cl)nc2c1 |  | active: 16.4 µM
30 | COc1ccc(N2CCN(C(=O)c3cc4c(-c5cccc(OC)c5)nn(C)c4s3)CC2)cc1 |  | inconclusive: 18.4 µM [inhibitor, single point]
31 | CC1(C)CC(=NOC(=O)c2ccccc2)CC(C)(C)N1O | inactive: -3.92% | 
32 | Cc1[nH]c2ccc(-c3n[nH]c(=S)n3-c3ccc(Br)cc3)cc2c1C |  | inconclusive: 13 µM [inhibitor, partial curve]
33 | CC(NC(=O)c1ccco1)c1nnc2n1CCN(Cc1cccc(Cl)c1)CC2 (stereo unspecified) | inactive: 1.06% [at 9.04 µM] | 
34 | CC(C)CC(=O)Nc1ccccc1-c1nnn(CC(=O)N2CCc3ccccc3C2)n1 |  | inconclusive: 23.1 µM [inhibitor, single point]
35 | CCOc1ccc(OCCC(=O)OCC(=O)Nc2cc(S(=O)(=O)N3CCOCC3)ccc2C)cc1 |  | inconclusive: 29.1 µM [inhibitor, single point]
36 | Oc1ccc(NCc2ccc(OCc3ccccc3)cc2)cc1 |  | active: 6.51 µM
37 | CCOC(=O)c1ccc(NC(=O)Cn2nnc3ccccc32)cc1 |  | active: 23.1 µM
38 | Cc1ccc(CNC(=O)CS(=O)(=O)Cc2nc(-c3ccccc3C)oc2C)cc1 |  | inconclusive: 29.1 µM [inhibitor, single point]
39 | CCCCCn1c(=O)[nH]c2cc(C(=O)NCc3ccccc3)ccc2c1=O | inactive: 0.586% | 
40 | Cc1ccc(C(=O)NC2c3ccccc3-c3ccccc32)cc1 |  | active: 2.91 µM
41 | O=C(NCCN1CCC(n2c(=O)[nH]c3ccccc32)CC1)c1ccccc1C(F)(F)F |  | inconclusive: 16.4 µM [inhibitor, single point]
42 | COc1ccc(C(=O)NCCCNC(=O)c2cccnc2)cc1Br |  | inconclusive: 16.4 µM [inhibitor, single point]
43 | CC(C)CNS(=O)(=O)c1ccc(N2CCCCS2(=O)=O)cc1 |  | inconclusive: 29.1 µM [inhibitor, single point]
44 | Cc1cc(F)ccc1NCC(=O)Nc1ccccc1Br | inactive: -4.34% | 
45 | CCOc1ccc(NC(=O)CCc2c(C)nc3cc(-c4ccc(Cl)cc4)nn3c2C)cc1 |  | active: 14.6 µM
46 | Cc1c(C2CC(=O)N(c3ccccc3)C2=O)[nH]n(-c2ccccc2)c1=O (stereo unspecified) |  | active: 16.4 µM
47 | O=C(Cn1nnc(-c2ccc(CN3CCOCC3)cc2)n1)Nc1nc(-c2ccccc2)cs1 |  | inconclusive: 23.1 µM [inhibitor, partial curve, poor fit]
48 | COC(=O)C(Cc1ccc(O)cc1)NC(=O)Cn1cc(C)c(=O)[nH]c1=O (stereo unspecified) | inactive: -1.08% | 

Row | Structure (SMILES) | activity change, negative = growth inhibition | Potency
49 | Cc1ccc(NC(=O)c2sc(-n3nc(C)c(Cc4ccc5c(c4)OCO5)c3C)nc2C)cc1Cl |  | inconclusive: 20.6 µM [inhibitor, single point]
50 | Cc1ccc(S(=O)(=O)N2CCN=C2SC(C)c2ccccc2)cc1 (stereo unspecified) |  | inconclusive: 29.1 µM [inhibitor, single point]
51 | Cc1ccc(/C=N/NC(=O)c2cc(C)oc2C)o1 | inactive: 2.2% | 
52 | O=C(c1ccc(F)cc1)C1CCN(CCCCc2ccccc2)CC1 |  | inconclusive: 33.5 µM [inhibitor, single point]
53 | CC1CCN(c2nc(-c3ccccc3O)nc3ccccc23)CC1 |  | inconclusive: 13 µM [inhibitor, partial curve]
54 | Cc1nc2ccc([N+](=O)[O-])cc2c(=O)n1Cc1ccccc1Br | inactive: -2% | 
55 | Cc1cccc(Cn2c(SCc3ccc(C(=O)NC4CCCC4)cc3)nc3ccncc32)c1 |  | inconclusive: 9.2 µM [inhibitor, single point]
56 | CCOc1ccccc1C1N=C(c2ccc(OC)cc2)CC(c2ccccc2O)N1 (stereo unspecified) |  | active: 20.6 µM
57 | COc1ccc(NC(=S)Nc2ccc(F)cc2)c(OC)c1 |  | inconclusive: 32.6 µM [inhibitor, partial curve, poor fit]
58 | Cc1ccc(SCc2[nH]nc3c2C(c2cccnc2)C(C#N)=C(N)O3)cc1 (stereo unspecified) | inconclusive: -31.3% [inhibitor] | 
59 | COc1ccc(CNC(=O)Cc2c(C)c3c(cc(C)c4c(C)c(C)oc43)oc2=O)cc1OC | inactive: -0.975% | 
60 | O=c1c(N=Nc2ccc(O)cc2)c(-c2ccccc2)[nH]n1-c1ccc([N+](=O)[O-])cc1 |  | inconclusive: 23.1 µM [inhibitor, single point]
61 | COc1cc2c(cc1OC)C(c1ccc3c(c1)OCO3)C1=C(CC(C)(C)CC1=O)N2 (stereo unspecified) |  | inconclusive: 25.9 µM [inhibitor, single point]
62 | O=C1c2cccnc2C(=O)N1c1nc(-c2ccccc2)cs1 | inactive: -20.8% | 
63 | COc1ccc(CC(=O)Nc2ccc3nc(N4CCCCC4)cc(C)c3c2)cc1 |  | active: 23.1 µM
64 | Cc1ccc(S(=O)(=O)N(C)Cc2ccc(C(=O)N/N=C3\CC(=O)CC(C)(C)C3)cc2)cc1 | inactive: -12.4% | 
65 | CC1CCN(S(=O)(=O)c2ccc3c(c2)oc(=O)n3CC(=O)O)CC1 | inactive: -4.96% | 
66 | CCc1nnc(NC(=O)CSc2ncc(-c3ccccc3)[nH]2)s1 | inactive: -12% | 
67 | CC(C)CC1C(C#N)=C(N)Oc2n[nH]c(-c3cccs3)c21 (stereo unspecified) |  | inconclusive: 9.2 µM [inhibitor, single point]
68 | Cc1c(C(=O)N2CCOCC2)c(S(=O)(=O)Nc2cccc(Br)c2)c(C)n1C | inconclusive: -32.5% [inhibitor] | 
69 | CCN(CC)S(=O)(=O)c1cccc(C(=O)OCC(=O)c2ccc3c(c2)OCCO3)c1 | inactive: -26.1% | 
70 | COC(=O)c1ccc(C2C(C(=O)c3cc4ccccc4o3)=C(O)C(=O)N2c2cc(C)on2)cc1 (stereo unspecified) | inactive: -11.2% | 
71 | CS(=O)(=O)N(Cc1ccc(Cl)cc1)c1ccc(C(=O)N2CCN(c3ccccc3)CC2)cc1 |  | inconclusive: 25.9 µM [inhibitor, single point]
